PubChem BioAssay AID652104 (National Center for Advancing Translational Sciences (NCATS), 2013)
Out of some 410,000 compounds screened, about 7,200 (1.8%) were called active. Inconclusive results, whose numbers are uncertain, are shown with a selection of clear calls. Calls follow the shape of the dose curve; as a rule, active = well fitted activation curve with a large enough effect; inconclusive = small, poorly fitted or top-dose-only effect, or another doubt; inactive = no such curve, though single readings can be large or run the other way. No potency is given beside an inconclusive call; the fits are too rough. Non-standard residues stand in square brackets, D forms with d. Residues, ends and D or L forms follow the SMILES beside them. ξ: configuration not given here. *: point of attachment. ξF = NC(Cc1ccccc1)C(=O)O; Cbz = O=C(OCc1ccccc1)*

Test: qHTS of TDP-43 Inhibitors; also: nearly all actives have a fitted effect of over 50% in size; as to growth rescue (activation): % of control where 0% means no effect
Conditions: TDP-43 expressing yeast growth rescue, BacTiter-Glo, 24 h; growth rescue (activation): at 46.1 µM (top of the series) unless noted
Method in brief: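 Cell-based yeast growth screen: TDP-43 expression induced in galactose, inoculum OD600=0.02 after raffinose pregrowth to mid-log. Read-out BacTiter-Glo luminescence at 24 hr, 30 deg C; inhibition of toxicity seen as signal increase.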
Potency is read from the fitted curve at half-maximal effect; tags tell the direction and shape of the fitted curve.

| SMILES | Potency | growth rescue (activation) |
| --- | --- | --- |
| O=C(NC(=S)N1CCN(c2ccc(C(F)(F)F)cc2[N+](=O)[O-])CC1)c1cccs1 | active: 20 µM | – |
| CC(=O)N1c2ccccc2Sc2ccc3ccccc3c21 | inconclusive [activator, partial curve] | – |
| O=C(OCC(=O)N1CCOCC1)c1ccccc1OCc1ccccc1 | – | inactive: 5.5% |
| O=C1CCCN2N=C(SCC(=O)N3N=C(c4ccc(Br)cc4)CC3c3ccc(F)cc3)SC2=N1 (configuration not stated) | inconclusive [activator, single point] | – |
| CCCNC(=O)C1(C)CCCN(C(=O)c2ccccc2OC)C1 (configuration not stated) | – | inactive: 16.9% |
| CN(C)/C=N/n1cnc2ccccc2c1=O | – | inactive: -25.8% [at 1.82 µM] |
| Nc1ccccc1SC(CC(=O)c1ccccc1)c1ccccc1 (configuration not stated) | – | inactive: 3.55% |
| CC(C)(C)c1ccc(C(=O)Nc2onc3c2CCCC3)cc1 | inconclusive [activator, single point] | – |
| CC(C)[C@H](NC(=O)OCc1ccccc1)C(=O)NC(C=O)Cc1ccccc1 (stereo partly drawn) (Cbz-Val-[ξF]-aldehyde) | inconclusive [activator, single point] | – |
| O=C(C[C@@H]1C[C@H]2c3cc(NC(=O)C4CCC4)ccc3O[C@H]2[C@@H](CO)O1)NCc1ccc(-c2ccccc2)cc1 | – | inactive: 16.1% |
| CCOc1cc(/C=C\[N+](=O)[O-])ccc1OCC(=O)Nc1ccccc1C | inconclusive [activator, full curve, poor fit] | – |
| Cc1ccc(CNC(=O)c2ccc3nc(SCc4ccc(F)cc4)[nH]c3c2)cc1 | inconclusive [activator, single point] | – |
| CN1C(=O)C(N=Nc2ccc([N+](=O)[O-])cc2)SC1=S (configuration not stated) | – | inactive: -95.4% |
| COc1ccc(C(=O)Nc2cc(C(=O)c3ccccc3)c(C)oc2=O)cc1 | – | inconclusive: -91.3% [activator] |
| Cc1nc2ccc(NS(=O)(=O)c3ccc(C)c(C)c3)cc2s1 | – | inactive: 27.1% |
| O=c1cc(N2CCCCC2)c(-c2ccccc2)nn1Cc1cccc(F)c1 | inconclusive [activator, single point] | – |
| COc1ccc(S(=O)(=O)N2CCCCCC2)cc1C(=O)NCc1ccco1 | – | inactive: -21.4% |
| COc1ccc(/C=C/C(=O)Nc2nc(-c3cccs3)ns2)cc1OC | – | inactive: 14.6% |
| CCNC(=O)C1CCCN(C(=O)C(c2ccccc2)c2ccccc2)CC1 (configuration not stated) | inconclusive [activator, full curve] | – |
| CC1(C(=O)NCc2ccc(F)c(F)c2)Cc2c(-c3ccc4c(c3)OCO4)ccnc2O1 (configuration not stated) | active: 35.5 µM | – |
| COc1ccc(C2c3cc(OC)c(OC)cc3CC(=O)N2c2ccc(C)c(F)c2)cc1 (configuration not stated) | – | inactive: 3.55% |
| CCCCC(=O)OCc1c(-c2ccccc2)ncc2ccccc12 | inconclusive [activator, partial curve] | – |
| CN(C)CC(=O)Nc1nc(-c2ccccc2)cs1 | – | inactive: 5.85% |
| CN(C)c1ccc(C(=O)Nc2nnc(-c3ccc(Cl)cc3)o2)cc1 | inconclusive [activator, full curve] | – |

| SMILES | Potency | growth rescue (activation) |
| --- | --- | --- |
| O=C(CSc1nnc(Nc2ccccc2F)s1)c1cc2ccccc2o1 | inconclusive [activator, partial curve] | – |
| O=C(CCCc1nc(-c2ccc(Cl)cc2)no1)Nc1cccnc1 | active: 15.8 µM | – |
| CC1(Cc2ccccc2Cl)C(=O)Nc2c(Cl)ccc(Cl)c21 (configuration not stated) | active: 31.6 µM | – |
| Nc1nc2ccc(-c3nc4ccccc4o3)cc2s1 | inconclusive [activator, full curve, poor fit] | – |
| CCOC(=O)c1sc(-c2cccs2)nc1C | – | inactive: 16.9% |
| CCn1nc(NC(=O)C(C)(C)C)c2cc3cccc(C)c3nc21 | inconclusive [activator, partial curve] | – |
| Cc1ccc2c(c1)nnn2C1CCN(C(=O)C2CCCCC2)CC1 | active: 20 µM | – |
| CSc1ccc(CN(C)C(=O)CSCC(=O)Nc2ccc(C)cc2)cc1 | inconclusive [activator, single point] | – |
| COC(=O)N1CCCCC1c1cc(C(=O)Nc2ccc(OC)cc2C)no1 (configuration not stated) | inconclusive [activator, full curve, poor fit] | – |
| O=C(Nc1ncc2c(n1)-c1ccccc1CC2)c1cccs1 | inconclusive [activator, single point] | – |
| O=C(c1ccco1)N1CCN(C(=O)c2cc(-c3ccccc3F)no2)CC1 | inconclusive [activator, single point] | – |
| C=CCOc1c(CNc2cccc(C(=O)O)c2)cccc1OCC | inconclusive [activator, single point] | – |
| O=S1(=O)CC(N2CCC(c3ccccc3)CC2)CN1Cc1ccc(F)cc1 (configuration not stated) | inconclusive [activator, single point] | – |
| COc1ccc(-c2nc(C#N)c(N3CCCCCC3)o2)cc1OC | inconclusive [activator, single point] | – |
| COC(=O)c1ccccc1NC(=O)C1CCN(C(=O)N2CC(C)Oc3ccccc32)CC1 (configuration not stated) | inconclusive [activator, partial curve, poor fit] | – |
| COc1ccc2c(C)cc3n[nH]c(=S)n3c2c1 | inconclusive [activator, partial curve] | – |
| COc1ccc(-c2nc3ccccc3s2)cc1NC(=O)c1ccc(F)cc1 | – | inactive: 12.4% |
| CCOC(=O)C1CCCN(C2CC(=O)N(c3ccc(C)cc3)C2=O)C1 (configuration not stated) | inconclusive [activator, single point] | – |
| N/C(=N\OC(=O)CCCc1ccccc1)c1ccccc1Cl | inconclusive [activator, single point] | – |
| CC(C)(C)CC(=O)NCC(c1ccc2c(c1)OCO2)N1CCOCC1 (configuration not stated) | inconclusive [activator, partial curve] | – |
| O=C(COc1ccccc1C(=O)NCc1ccccc1)Nc1ccccc1 | inconclusive [activator, partial curve] | – |
| COC(=O)c1coc(-c2ccc(C)cc2)c1C(=O)OC | inconclusive [activator, partial curve] | – |
| Cc1ccc(NC(=O)c2ccc3c(O)c(S(=O)(=O)c4ccccc4)c(=O)[nH]c3c2)cc1Cl | – | inactive: 10.3% |
| Cc1ccc(C(=O)c2oc3ccccc3c2NC(=O)c2cc(-c3ccccc3O)n[nH]2)cc1 | inconclusive [activator, partial curve] | – |

| SMILES | Potency | growth rescue (activation) |
| --- | --- | --- |
| Cc1ccc(S(=O)(=O)N2CCN(C(=O)COC(=O)CCOc3ccccc3C)CC2)cc1 | inconclusive [activator, partial curve] | – |
| CCOc1ccc(CN(C)C(=O)CCl)cc1 | inconclusive [activator, single point] | – |
| COc1ccc(NC(=O)CN(C)C(=O)COc2ccccc2Cc2ccccc2)cc1 | inconclusive [activator, single point] | – |
| Cc1ccc(C)c(N2CCN(C(=O)CCCOc3cc(=O)n(C)c4ccccc34)CC2)c1 | inconclusive [activator, single point] | – |
| COc1ccc(Nc2ncnc3c2nc2n3CCCCC2)cc1 | inconclusive [activator, full curve] | – |
| COc1ccc(CC(=O)n2nc(-c3ccccc3)nc2NCc2ccco2)cc1 | inconclusive [activator, partial curve] | – |
| CCOc1ccccc1-c1ccc(C(=O)NCc2ccccc2)o1 | active: 15.8 µM | – |
| COc1ccccc1-c1sc2cc3c(cc2c1C#Cc1ccccn1)OCO3 | – | inactive: 18.2% |
| O=C(CCc1c[nH]c2ccccc12)OCc1cccc([N+](=O)[O-])c1 | inconclusive [activator, single point] | – |
| COc1cc2nnn(-c3ccncc3)c2cc1OC | inconclusive [activator, partial curve, poor fit] | – |
| O=C(NCC1OCCc2ccccc21)c1cc(COc2c(F)cccc2F)on1 (configuration not stated) | inconclusive [activator, single point] | – |
| COc1ccccc1CCNC(=O)C(C)Sc1nc(-c2ccccc2)cc(C(F)(F)F)n1 (configuration not stated) | – | inactive: -20.5% |
| COc1ccc(C)cc1NC(=O)Nc1cccc(-c2noc(C)n2)c1 | inconclusive [activator, partial curve] | – |
| CCc1ccc(NC(=O)Cn2c(=O)n(CCC(=O)NCCc3ccc(Cl)cc3)c(=O)c3ccccc32)cc1 | – | inactive: 7.99% |
| Cc1noc(/C=C/c2ccccc2F)c1S(=O)(=O)N1CCC(C(=O)N2CCOc3ccccc32)CC1 | inconclusive [activator, full curve, poor fit] | – |
| CC(C)C(c1nnnn1C1CCCC1)N1CCCc2ccccc21 (configuration not stated) | active: 15.8 µM | – |
| C=C(C)C1CCC(C)=C1COC(=O)Nc1ccccc1 (configuration not stated) | inconclusive [activator, partial curve] | – |
| CN(C)c1ccc(Nc2ncnc3sc4c(c23)CCCC4)cc1 | – | inactive: -9.92% |
| COc1ccc(C)cc1N(C)C(=O)CCc1nc(-c2ccccc2F)no1 | inconclusive [activator, partial curve] | – |
| Cc1cc(SCC(=O)N/N=C/c2ccc(O)c(O)c2)c(C)cc1Br | – | inactive: 0% |
| CCCCNc1oc(-c2ccc(COc3ccc(OC)cc3)o2)nc1C#N | – | inactive: 2.67% |
| COc1cc(/C=N/NC(=O)C(=O)/C=C2\NC3(CCCC3)Cc3ccccc32)ccc1O | inconclusive [activator, partial curve] | – |
| Cc1c(-c2ccccc2)sc2nc[nH]c(=S)c12 | active: 15.8 µM | – |
| O=C(COc1ccc(F)cc1)Nc1ccc2c(c1)OCCO2 | inconclusive [activator, partial curve] | – |
